Data published in the supplement of paper PMC3334620.
In all, about 33,000 sequences were measured (“E-score (-0.5 to 0.5)”: median about -0.041, highest 2% from about 0.37 on). The list shows a part of the results.

target: T1, Ecm22 (UniProt Q05958); assay: PBM E-score (8-mer binding enrichment) (E-score (-0.5 to 0.5)); higher = stronger / more preferred TF binding; most listed sequences are background and not binding sites; settings: protein concentration: 200 nM; construct: GST-full length
T1 sequence: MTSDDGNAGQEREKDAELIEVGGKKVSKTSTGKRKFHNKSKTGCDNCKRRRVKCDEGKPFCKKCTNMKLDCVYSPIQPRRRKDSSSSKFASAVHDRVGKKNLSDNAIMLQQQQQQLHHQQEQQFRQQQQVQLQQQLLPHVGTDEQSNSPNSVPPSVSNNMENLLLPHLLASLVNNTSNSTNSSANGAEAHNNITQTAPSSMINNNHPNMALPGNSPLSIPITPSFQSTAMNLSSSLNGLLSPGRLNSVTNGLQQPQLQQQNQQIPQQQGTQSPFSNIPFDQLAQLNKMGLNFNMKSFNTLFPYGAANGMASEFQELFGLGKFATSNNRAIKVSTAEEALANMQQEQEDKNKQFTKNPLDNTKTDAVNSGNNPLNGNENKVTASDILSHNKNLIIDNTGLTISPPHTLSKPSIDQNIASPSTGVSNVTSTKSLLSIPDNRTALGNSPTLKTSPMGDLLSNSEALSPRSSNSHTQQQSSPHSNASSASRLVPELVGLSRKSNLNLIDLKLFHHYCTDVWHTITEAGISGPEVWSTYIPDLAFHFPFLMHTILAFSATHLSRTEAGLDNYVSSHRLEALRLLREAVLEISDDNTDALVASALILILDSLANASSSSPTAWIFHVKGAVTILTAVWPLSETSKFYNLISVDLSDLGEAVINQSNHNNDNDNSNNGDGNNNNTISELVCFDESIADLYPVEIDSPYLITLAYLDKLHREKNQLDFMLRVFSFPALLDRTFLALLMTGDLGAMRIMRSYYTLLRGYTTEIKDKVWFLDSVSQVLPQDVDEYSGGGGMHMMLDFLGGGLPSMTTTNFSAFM
In short: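 Yeast transcription factors carrying a GST tag, as full-length proteins or DNA-binding domains, were produced by PURExpress in vitro transcription/translation. About 100-200 nM protein was applied to universal all-10-mer Agilent arrays, double-stranded by primer extension on fresh or once-stripped slides. Bound protein was detected with fluorescent anti-GST, and scans were normalised with masliner. The Universal PBM Analysis Suite gave each ungapped eight-base word, pooled with its reverse complement, an E-score, a modified Wilcoxon-Mann-Whitney statistic.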

| Sequence | PBM E-score |
| --- | --- |
| AATCCGCA | -0.0374 |
| ACCCCGAT | -0.185 |
| AGCTTTCA | -0.154 |
| AATGGCCA | -0.223 |
| CAAACAGC | -0.0683 |
| AGCGTCGA | 0.0362 |
| AAGTGCTA | -0.145 |
| GGTTGGAC | -0.241 |
| CGACGGTC | 0.193 |
| AAGGGAGA | -0.212 |
| CAAACAAA | 0.0404 |
| TGGCTACA | 0.134 |
| CACCTTGC | -0.0519 |
| GCTGCATA | -0.114 |
| CTCATCAC | -0.183 |
| GATCATGA | 0.128 |
| AAGGGCCA | -0.444 |
| CGCGCAAA | 0.188 |
| TCCACTAA | -0.0495 |
| ACTCCTAA | -0.103 |
| CTGGGTAA | -0.00727 |
| CGCCCGAG | -0.0794 |

| Sequence | PBM E-score |
| --- | --- |
| ATAACATA | 0.157 |
| ACTGCGTA | 0.132 |
| TCCATGGA | -0.0517 |
| GAGATAGA | 0.00065 |
| GGCCTCTA | -0.138 |
| TAGTGTAA | -0.0408 |
| ATCAAGTG | -0.307 |
| AAATGCAC | -0.0425 |
| TATGCCCA | -0.146 |
| CCATATTA | 0.0759 |
| AGGAGTTC | -0.0909 |
| AACTTCAG | -0.0831 |
| GGTTGAAA | -0.188 |
| AAGTGTAC | 0.095 |
| CGCAAACC | 0.227 |
| GTGATTGA | -0.0833 |
| CCCATGTA | -0.213 |
| CGCGAGAC | 0.27 |
| AGGCATGC | -0.155 |
| AAACCCGA | 0.279 |
| AAGGAAGA | -0.159 |
| ACCTGCTG | -0.238 |

| Sequence | PBM E-score |
| --- | --- |
| ACTCGACT | -0.14 |
| GACTTCTA | -0.159 |
| AGGCAGAC | -0.205 |
| CCTGAACA | -0.102 |
| GAGCCCAC | -0.0418 |
| ACGGTGGA | 0.123 |
| AGTGAAAT | -0.184 |
| CCTAAGTC | -0.235 |
| CCTCTAAG | -0.294 |
| CTGGCCTC | -0.0267 |
| GGGCGTAA | -0.0459 |
| AGCTTATA | -0.0588 |
| ACTTCACC | 0.0335 |
| CCCTGAGC | -0.127 |
| ACCATCAG | -0.095 |
| CATTGGAA | -0.122 |
| CGGGGGAC | -0.248 |
| AATCTCCA | -0.162 |
| CAAAGTAG | -0.0816 |
| ACTATAGG | -0.122 |
| CAAGGTAC | 0.163 |
| CATGTCTC | -0.0657 |

| Sequence | PBM E-score |
| --- | --- |
| CGATAAGA | 0.00213 |
| ATAATTGC | -0.0903 |
| CAACGTAA | 0.13 |
| CGTCTGAG | 0.106 |
| GGTGGCAA | -0.192 |
| AGAGTTGG | -0.25 |
| ATACGTAC | 0.342 |
| AAGAAGTG | -0.0385 |
| ATTACAGA | 0.159 |
| CGTTCATC | 0.354 |
| CTATATTA | 0.0735 |
| CCCATAGC | -0.254 |
| ATGACCCA | -0.168 |
| CCAAATTC | -0.0263 |
| AGGGGACA | -0.219 |
| ATTGTAGG | 0.00729 |
| CCCTGGAG | -0.128 |
| CCCCCGTA | 0.26 |
| GTCGGGAA | 0.231 |
| CGGGCAAG | -0.131 |
